Source: patent EP1568373A2, “Inducing cellular immune responses to HER2/neu using peptide and nucleic acid compositions” (priority 1999, dated 2001)
For part of these data: Part of at least one peptide drawing is inferred or uncertain, most often the ends. For part of these data: At least one structure is not confirmed: it was looked up by name or label, or the drawing left a doubt. Where no end group is shown, it is not given here.

Tests used:
[1] = biological target: A*0101 (Homo sapiens, UniProt P04439, A114D/A174V/A182V/D101N/D185E/E176A/E190D/L180R/Q94H/R68K/S129P/T187R/V100A/V91M/W191G); assay: HLA class I binding assay, purified HLA molecules, inhibition of 125I-radiolabeled probe peptide; conditions: read-out: A*[…]; HLA-A1 Motif-Bearing Peptides, Table XXV
[2] = test system: DR1, DR4w4, and DR7; assay: DR supertype primary panel cross-binding; design: species or system human; conditions: number of DR1, DR4w4, DR7 bound with an IC50 value of 1000 nM or less
[3] = test system: DR1, DR4w4, DR7, DRB5*0101, DRB1*1501, DRB1*1101, DRB1*0802, and DRB1*1302; assay: DR supertype cross-reactive binding, 8 alleles tested; design: species or system human; conditions: IC50 value of 1000 nM or less; supertype binder = at least 5 of the 8 alleles tested

Question: For CC(C)[C@H](NC(=O)[C@H](CS)NC(=O)[C@@H](NC(=O)[C@H](C)N)[C@@H](C)O)C(=O)N[C@H](C(=O)N[C@@H](C)C(=O)N[C@@H](CS)C(=O)N1CCC[C@H]1C(=O)N[C@@H](Cc1ccc(O)cc1)C(=O)O)[C@@H](C)O [Her2/neu.293.T2], which IC50 [1] is on record?
Answer: The IC50 was 49 nM.

Question: What does the source list for CC[C@H](C)[C@H](N)C(=O)N[C@@H](CCCCN)C(=O)N[C@@H](Cc1c[nH]c2ccccc12)C(=O)N[C@@H](CCSC)C(=O)N[C@@H](C)C(=O)N[C@@H](CC(C)C)C(=O)N[C@@H](CCC(=O)O)C(=O)N[C@@H](CO)C(=O)N[C@H](C(=O)N[C@@H](CC(C)C)C(=O)N[C@@H](CCCNC(=N)N)C(=O)N[C@@H](CCCNC(=N)N)C(=O)N[C@@H](CCCNC(=N)N)C(=O)N[C@@H](Cc1ccccc1)C(=O)N[C@H](C(=O)O)[C@@H](C)O)[C@@H](C)CC [Her2/neu.886]?
Answer: DR147 Cross-binding [2]: 1; DR alleles bound / cross-reactive DR supertype binder [3]: cross-reactive supertype binder

Question: With CC[C@H](C)[C@H](NC(=O)CNC(=O)[C@H](CC(=O)O)NC(=O)[C@H](Cc1ccc(O)cc1)NC(=O)[C@@H]1CCCN1C(=O)[C@H](CCCCN)NC(=O)[C@H](C)NC(=O)CNC(=O)[C@H](Cc1ccccc1)NC(=O)[C@@H](NC(=O)[C@H](CCSC)NC(=O)[C@H](CC(C)C)NC(=O)[C@H](CCC(=O)O)NC(=O)[C@H](Cc1c[nH]c2ccccc12)NC(=O)[C@@H](N)C(C)C)[C@@H](C)O)C(=O)O [Her2/neu.912] as the molecule, how does the “DR147 Cross-binding” value [2] read?
Answer: The value was 3.

Question: How did the “DR147 Cross-binding” value [2] turn out when CC[C@H](C)[C@H](NC(=O)[C@H](CCSC)NC(=O)[C@H](Cc1ccc(O)cc1)NC(=O)[C@@H](NC(=O)[C@H](CC(=O)O)NC(=O)[C@@H](NC(=O)[C@@H](NC(=O)[C@H](CS)NC(=O)[C@@H](NC(=O)[C@@H]1CCCN1C(=O)[C@@H]1CCCN1C(=O)[C@@H](N)CCC(N)=O)[C@@H](C)CC)[C@@H](C)O)[C@@H](C)CC)C(C)C)C(=O)N[C@@H](CCSC)C(=O)N[C@H](C(=O)N[C@@H](CCCCN)C(=O)O)C(C)C [Her2/neu.943] was run?
Answer: The value was 2.

Question: How did the “DR147 Cross-binding” value [2] turn out when CC[C@H](C)[C@H](NC(=O)[C@H](CCSC)NC(=O)[C@H](Cc1c[nH]c2ccccc12)NC(=O)[C@H](CS)NC(=O)[C@H](CCCCN)NC(=O)[C@@H](NC(=O)[C@H](CCSC)NC(=O)[C@@H](NC(=O)[C@H](CCSC)NC(=O)[C@H](Cc1ccc(O)cc1)NC(=O)[C@@H](NC(=O)[C@@H](N)CC(=O)O)C(C)C)[C@@H](C)CC)C(C)C)C(=O)N[C@@H](CC(=O)O)C(=O)N[C@@H](CO)C(=O)N[C@@H](CCC(=O)O)C(=O)O [Her2/neu.950] was run?
Answer: The value was 3.

Question: How did the “DR147 Cross-binding” value [2] turn out when DMKLRLPASPETHLD [Her2/neu.30] was run?
Answer: Its value is 0.

Question: ETELVEPLTPSGAMP [Her2/neu.693] was tested. Which “DR147 Cross-binding” value [2] did it give?
Answer: Its value is 1.

Question: How did the “DR147 Cross-binding” value [2] turn out when IKVLRENTSPKANKE [Her2/neu.752] was run?
Answer: Its value is 0.

Question: How did the “DR147 Cross-binding” value [2] turn out when ITDFGLARLLDIDET [Her2/neu.861] was run?
Answer: The value was 0.

Question: Which “DR147 Cross-binding” value [2] does the source give for LLVVVLGVVFGILIK [Her2/neu.662] here?
Answer: The value was 0.

Question: How did the “DR147 Cross-binding” value [2] turn out when PSTFKGTPTAENPEY [Her2/neu.1234] was run?
Answer: The value was 0.

Question: Which “DR147 Cross-binding” value [2] does the source give for QGFFCPDPAPGAGGM [Her2/neu.1028] here?
Answer: The value was 0.

Question: With QPDVRPQPPSPREGP [Her2/neu.1142] as the molecule, how does the “DR147 Cross-binding” value [2] read?
Answer: The value was 0.

Question: For TDGYVAPLTCSPQPE [Her2/neu.1124], which “DR147 Cross-binding” value [2] is on record?
Answer: The value was 0.

Question: With VCPLHNQEVTAEDGT [Her2/neu.314] as the molecule, how does the “DR147 Cross-binding” value [2] read?
Answer: Its value is 0.

Question: How did the “DR147 Cross-binding” value [2] turn out when VEPLTPSGAMPNQAQ [Her2/neu.697] was run?
Answer: Its value is 0.

Question: Which “DR147 Cross-binding” value [2] does the source give for VVGILLVVVLGVVFG [Her2/neu.658] here?
Answer: Its value is 0.
